# Source: paper PMC12820563, “FoxP3 forms a head-to-head dimer in vivo and stabilizes its multimerization on adjacent microsatellites”
# The other results are listed elsewhere or left out.
# Molecular target: T1, MBP-FoxP1dN (Mus musculus, UniProt P58462 326-579)
# T1 sequence: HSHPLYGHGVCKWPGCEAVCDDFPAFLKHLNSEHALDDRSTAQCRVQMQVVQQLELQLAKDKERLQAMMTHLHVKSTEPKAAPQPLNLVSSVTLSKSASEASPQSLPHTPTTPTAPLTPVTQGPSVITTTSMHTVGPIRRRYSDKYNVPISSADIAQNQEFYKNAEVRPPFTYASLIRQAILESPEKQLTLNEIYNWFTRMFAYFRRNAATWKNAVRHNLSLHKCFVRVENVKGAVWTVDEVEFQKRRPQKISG
# Experiment: PD-seq (MBP pull-down with sequencing); 20 mM Tris-HCl pH 7.5, 100 mM NaCl, 1.5 mM MgCl2, 0.4 uM protein, 0.1 uM dsDNA library, 30 min, room temperature, amylose pull-down; high values mean tight binding
# Settings: protein: recombinant; tags: His6-MBP; chain copies: 2; dsDNA, one strand shown
# In short: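 Binding is the reads-per-million enrichment of pull-down relative to input, pooled across replicates. For this, 0.4 µM His6-MBP-tagged mouse FoxP3 or FoxP1 fragment lacking the N-terminus, made in E. coli, was incubated with 0.1 µM Klenow-filled double-stranded degenerate DNA library for 30 min at room temperature in Tris pH 7.5 buffer with NaCl and MgCl2. Complexes bound to amylose resin were washed three times before proteinase K released the DNA for PCR barcoding and Illumina sequencing.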
row,Sequence,binding signal
1,GATGATTGTTCTCCCAGCTGATGAATTCCGACCGTCGAGTAAACAAATTTTCCTAATCTTTCTGTTCAAGCGCCATCTAC,0.8 RPM ratio (pull-down/input)
2,GATGATTGTTCTCCCAGCTGATGAATTACCCACATCGAGTAAACAAATTTTCCTAATCTTTCTGTTCAAGCGCCATCTAC,1.06 RPM ratio (pull-down/input)
3,GATGATTGTTCTCCCAGCTGATGAATTTAATTTCTCGAGTAAACAAATTTTCCTAATCTTTCTGTTCAAGCGCCATCTAC,0.885 RPM ratio (pull-down/input)
4,GATGATTGTTCTCCCAGCTGATGAATTGGATAATTCGAGTAAACAAATTTTCCTAATCTTTCTGTTCAAGCGCCATCTAC,0.874 RPM ratio (pull-down/input)
5,GATGATTGTTCTCCCAGCTGATGAATTCCAGGATTCGAGTAAACAAATTTTCCTAATCTTTCTGTTCAAGCGCCATCTAC,0.847 RPM ratio (pull-down/input)
6,GATGATTGTTCTCCCAGCTGATGAATTCAGTCACTCGAGTAAACAAATTTTCCTAATCTTTCTGTTCAAGCGCCATCTAC,0.895 RPM ratio (pull-down/input)
7,GATGATTGTTCTCCCAGCTGATGAATTGTTCTGATCGAGTAAACAAATTTTCCTAATCTTTCTGTTCAAGCGCCATCTAC,1.08 RPM ratio (pull-down/input)
8,GATGATTGTTCTCCCAGCTGATGAATTATTTGACTCGAGTAAACAAATTTTCCTAATCTTTCTGTTCAAGCGCCATCTAC,1.07 RPM ratio (pull-down/input)
9,GATGATTGTTCTCCCAGCTGATGAATTTCAGAACTCGAGTAAACAAATTTTCCTAATCTTTCTGTTCAAGCGCCATCTAC,0.742 RPM ratio (pull-down/input)
10,GATGATTGTTCTCCCAGCTGATGAATTCATTGTGTCGAGTAAACAAATTTTCCTAATCTTTCTGTTCAAGCGCCATCTAC,1.03 RPM ratio (pull-down/input)
11,GATGATTGTTCTCCCAGCTGATGAATTCTGCAGATCGAGTAAACAAATTTTCCTAATCTTTCTGTTCAAGCGCCATCTAC,0.823 RPM ratio (pull-down/input)
12,GATGATTGTTCTCCCAGCTGATGAATTCCTGATATCGAGTAAACAAATTTTCCTAATCTTTCTGTTCAAGCGCCATCTAC,0.972 RPM ratio (pull-down/input)
13,GATGATTGTTCTCCCAGCTGATGAATTTAAACCGTCGAGTAAACAAATTTTCCTAATCTTTCTGTTCAAGCGCCATCTAC,0.891 RPM ratio (pull-down/input)
14,GATGATTGTTCTCCCAGCTGATGAATTCTATCTTTCGAGTAAACAAATTTTCCTAATCTTTCTGTTCAAGCGCCATCTAC,0.914 RPM ratio (pull-down/input)
15,GATGATTGTTCTCCCAGCTGATGAATTAGGTACCTCGAGTAAACAAATTTTCCTAATCTTTCTGTTCAAGCGCCATCTAC,0.844 RPM ratio (pull-down/input)
16,GATGATTGTTCTCCCAGCTGATGAATTAGCATGATCGAGTAAACAAATTTTCCTAATCTTTCTGTTCAAGCGCCATCTAC,0.948 RPM ratio (pull-down/input)
17,GATGATTGTTCTCCCAGCTGATGAATTGTCCCATTCGAGTAAACAAATTTTCCTAATCTTTCTGTTCAAGCGCCATCTAC,1.04 RPM ratio (pull-down/input)
18,GATGATTGTTCTCCCAGCTGATGAATTCTGCAGTTCGAGTAAACAAATTTTCCTAATCTTTCTGTTCAAGCGCCATCTAC,0.862 RPM ratio (pull-down/input)
19,GATGATTGTTCTCCCAGCTGATGAATTGCTAGGATCGAGTAAACAAATTTTCCTAATCTTTCTGTTCAAGCGCCATCTAC,0.971 RPM ratio (pull-down/input)
20,GATGATTGTTCTCCCAGCTGATGAATTATGAAGTTCGAGTAAACAAATTTTCCTAATCTTTCTGTTCAAGCGCCATCTAC,0.883 RPM ratio (pull-down/input)
21,GATGATTGTTCTCCCAGCTGATGAATTCCGAAAATCGAGTAAACAAATTTTCCTAATCTTTCTGTTCAAGCGCCATCTAC,0.935 RPM ratio (pull-down/input)

row,Sequence,binding signal
1,GATGATTGTTCTCCCAGCTGATGAATTGTGCGCTTCGAGTAAACAAATTTTCCTAATCTTTCTGTTCAAGCGCCATCTAC,1.09 RPM ratio (pull-down/input)
2,GATGATTGTTCTCCCAGCTGATGAATTCTAAGTTTCGAGTAAACAAATTTTCCTAATCTTTCTGTTCAAGCGCCATCTAC,0.972 RPM ratio (pull-down/input)
3,GATGATTGTTCTCCCAGCTGATGAATTCGCCCTATCGAGTAAACAAATTTTCCTAATCTTTCTGTTCAAGCGCCATCTAC,0.807 RPM ratio (pull-down/input)
4,GATGATTGTTCTCCCAGCTGATGAATTAAGTGAGTCGAGTAAACAAATTTTCCTAATCTTTCTGTTCAAGCGCCATCTAC,0.919 RPM ratio (pull-down/input)
5,GATGATTGTTCTCCCAGCTGATGAATTAAATCATTCGAGTAAACAAATTTTCCTAATCTTTCTGTTCAAGCGCCATCTAC,1.06 RPM ratio (pull-down/input)
6,GATGATTGTTCTCCCAGCTGATGAATTCTTTTGCTCGAGTAAACAAATTTTCCTAATCTTTCTGTTCAAGCGCCATCTAC,0.898 RPM ratio (pull-down/input)
7,GATGATTGTTCTCCCAGCTGATGAATTTCGGTCCTCGAGTAAACAAATTTTCCTAATCTTTCTGTTCAAGCGCCATCTAC,0.819 RPM ratio (pull-down/input)
8,GATGATTGTTCTCCCAGCTGATGAATTACATCGATCGAGTAAACAAATTTTCCTAATCTTTCTGTTCAAGCGCCATCTAC,1.22 RPM ratio (pull-down/input)
9,GATGATTGTTCTCCCAGCTGATGAATTACAAACGTCGAGTAAACAAATTTTCCTAATCTTTCTGTTCAAGCGCCATCTAC,1.32 RPM ratio (pull-down/input)
10,GATGATTGTTCTCCCAGCTGATGAATTTTCTAGGTCGAGTAAACAAATTTTCCTAATCTTTCTGTTCAAGCGCCATCTAC,0.869 RPM ratio (pull-down/input)
11,GATGATTGTTCTCCCAGCTGATGAATTCGTTTACTCGAGTAAACAAATTTTCCTAATCTTTCTGTTCAAGCGCCATCTAC,1.15 RPM ratio (pull-down/input)
12,GATGATTGTTCTCCCAGCTGATGAATTGCGGGCGTCGAGTAAACAAATTTTCCTAATCTTTCTGTTCAAGCGCCATCTAC,0.988 RPM ratio (pull-down/input)
13,GATGATTGTTCTCCCAGCTGATGAATTAGTACTATCGAGTAAACAAATTTTCCTAATCTTTCTGTTCAAGCGCCATCTAC,1.09 RPM ratio (pull-down/input)
14,GATGATTGTTCTCCCAGCTGATGAATTCGCCCTCTCGAGTAAACAAATTTTCCTAATCTTTCTGTTCAAGCGCCATCTAC,0.785 RPM ratio (pull-down/input)
15,GATGATTGTTCTCCCAGCTGATGAATTACGTACATCGAGTAAACAAATTTTCCTAATCTTTCTGTTCAAGCGCCATCTAC,1.16 RPM ratio (pull-down/input)
16,GATGATTGTTCTCCCAGCTGATGAATTAGGTCACTCGAGTAAACAAATTTTCCTAATCTTTCTGTTCAAGCGCCATCTAC,0.885 RPM ratio (pull-down/input)
17,GATGATTGTTCTCCCAGCTGATGAATTGGATCCCTCGAGTAAACAAATTTTCCTAATCTTTCTGTTCAAGCGCCATCTAC,0.788 RPM ratio (pull-down/input)
18,GATGATTGTTCTCCCAGCTGATGAATTTGCTCCATCGAGTAAACAAATTTTCCTAATCTTTCTGTTCAAGCGCCATCTAC,1.03 RPM ratio (pull-down/input)
19,GATGATTGTTCTCCCAGCTGATGAATTAACTGTGTCGAGTAAACAAATTTTCCTAATCTTTCTGTTCAAGCGCCATCTAC,0.92 RPM ratio (pull-down/input)
20,GATGATTGTTCTCCCAGCTGATGAATTCTCATTTTCGAGTAAACAAATTTTCCTAATCTTTCTGTTCAAGCGCCATCTAC,1.04 RPM ratio (pull-down/input)
21,GATGATTGTTCTCCCAGCTGATGAATTAAGGTACTCGAGTAAACAAATTTTCCTAATCTTTCTGTTCAAGCGCCATCTAC,0.977 RPM ratio (pull-down/input)

row,Sequence,binding signal
1,GATGATTGTTCTCCCAGCTGATGAATTCGGAGTTTCGAGTAAACAAATTTTCCTAATCTTTCTGTTCAAGCGCCATCTAC,0.867 RPM ratio (pull-down/input)
2,GATGATTGTTCTCCCAGCTGATGAATTCCGTTATTCGAGTAAACAAATTTTCCTAATCTTTCTGTTCAAGCGCCATCTAC,1.07 RPM ratio (pull-down/input)
3,GATGATTGTTCTCCCAGCTGATGAATTTGTCTGTTCGAGTAAACAAATTTTCCTAATCTTTCTGTTCAAGCGCCATCTAC,1.01 RPM ratio (pull-down/input)
4,GATGATTGTTCTCCCAGCTGATGAATTTTAAGGATCGAGTAAACAAATTTTCCTAATCTTTCTGTTCAAGCGCCATCTAC,0.976 RPM ratio (pull-down/input)
5,GATGATTGTTCTCCCAGCTGATGAATTACATTTTTCGAGTAAACAAATTTTCCTAATCTTTCTGTTCAAGCGCCATCTAC,1.37 RPM ratio (pull-down/input)
6,GATGATTGTTCTCCCAGCTGATGAATTCCTCGTATCGAGTAAACAAATTTTCCTAATCTTTCTGTTCAAGCGCCATCTAC,0.859 RPM ratio (pull-down/input)
7,GATGATTGTTCTCCCAGCTGATGAATTCCGGGCATCGAGTAAACAAATTTTCCTAATCTTTCTGTTCAAGCGCCATCTAC,0.862 RPM ratio (pull-down/input)
8,GATGATTGTTCTCCCAGCTGATGAATTTAGAAATTCGAGTAAACAAATTTTCCTAATCTTTCTGTTCAAGCGCCATCTAC,0.989 RPM ratio (pull-down/input)
9,GATGATTGTTCTCCCAGCTGATGAATTCTACGATTCGAGTAAACAAATTTTCCTAATCTTTCTGTTCAAGCGCCATCTAC,0.847 RPM ratio (pull-down/input)
10,GATGATTGTTCTCCCAGCTGATGAATTAAAGACATCGAGTAAACAAATTTTCCTAATCTTTCTGTTCAAGCGCCATCTAC,1.02 RPM ratio (pull-down/input)
11,GATGATTGTTCTCCCAGCTGATGAATTCCCCCAGTCGAGTAAACAAATTTTCCTAATCTTTCTGTTCAAGCGCCATCTAC,0.776 RPM ratio (pull-down/input)
12,GATGATTGTTCTCCCAGCTGATGAATTGTCCTGTTCGAGTAAACAAATTTTCCTAATCTTTCTGTTCAAGCGCCATCTAC,1.04 RPM ratio (pull-down/input)
13,GATGATTGTTCTCCCAGCTGATGAATTAACGATATCGAGTAAACAAATTTTCCTAATCTTTCTGTTCAAGCGCCATCTAC,1.03 RPM ratio (pull-down/input)
14,GATGATTGTTCTCCCAGCTGATGAATTTCGGCAGTCGAGTAAACAAATTTTCCTAATCTTTCTGTTCAAGCGCCATCTAC,0.847 RPM ratio (pull-down/input)
15,GATGATTGTTCTCCCAGCTGATGAATTGTACTCCTCGAGTAAACAAATTTTCCTAATCTTTCTGTTCAAGCGCCATCTAC,0.949 RPM ratio (pull-down/input)
16,GATGATTGTTCTCCCAGCTGATGAATTTGTCATATCGAGTAAACAAATTTTCCTAATCTTTCTGTTCAAGCGCCATCTAC,1.24 RPM ratio (pull-down/input)
17,GATGATTGTTCTCCCAGCTGATGAATTATCTATGTCGAGTAAACAAATTTTCCTAATCTTTCTGTTCAAGCGCCATCTAC,0.972 RPM ratio (pull-down/input)
18,GATGATTGTTCTCCCAGCTGATGAATTGAGCGTGTCGAGTAAACAAATTTTCCTAATCTTTCTGTTCAAGCGCCATCTAC,0.844 RPM ratio (pull-down/input)
19,GATGATTGTTCTCCCAGCTGATGAATTCCATAGGTCGAGTAAACAAATTTTCCTAATCTTTCTGTTCAAGCGCCATCTAC,0.774 RPM ratio (pull-down/input)
20,GATGATTGTTCTCCCAGCTGATGAATTGTGTAGCTCGAGTAAACAAATTTTCCTAATCTTTCTGTTCAAGCGCCATCTAC,1.07 RPM ratio (pull-down/input)
21,GATGATTGTTCTCCCAGCTGATGAATTGGTACCTTCGAGTAAACAAATTTTCCTAATCTTTCTGTTCAAGCGCCATCTAC,0.97 RPM ratio (pull-down/input)
